PMC4814574
These are yes or no findings as the source states them, for the method shown. In cells and extracts the contact can be indirect. Some entries that bind do so weakly or less than the wild type. For some assays here: Where a sequence is shown, tags or fusion partners need not be part of it.

Protein sequences, listed by entry. Tags and fused reporters are not part of them.
UniProt Q92830: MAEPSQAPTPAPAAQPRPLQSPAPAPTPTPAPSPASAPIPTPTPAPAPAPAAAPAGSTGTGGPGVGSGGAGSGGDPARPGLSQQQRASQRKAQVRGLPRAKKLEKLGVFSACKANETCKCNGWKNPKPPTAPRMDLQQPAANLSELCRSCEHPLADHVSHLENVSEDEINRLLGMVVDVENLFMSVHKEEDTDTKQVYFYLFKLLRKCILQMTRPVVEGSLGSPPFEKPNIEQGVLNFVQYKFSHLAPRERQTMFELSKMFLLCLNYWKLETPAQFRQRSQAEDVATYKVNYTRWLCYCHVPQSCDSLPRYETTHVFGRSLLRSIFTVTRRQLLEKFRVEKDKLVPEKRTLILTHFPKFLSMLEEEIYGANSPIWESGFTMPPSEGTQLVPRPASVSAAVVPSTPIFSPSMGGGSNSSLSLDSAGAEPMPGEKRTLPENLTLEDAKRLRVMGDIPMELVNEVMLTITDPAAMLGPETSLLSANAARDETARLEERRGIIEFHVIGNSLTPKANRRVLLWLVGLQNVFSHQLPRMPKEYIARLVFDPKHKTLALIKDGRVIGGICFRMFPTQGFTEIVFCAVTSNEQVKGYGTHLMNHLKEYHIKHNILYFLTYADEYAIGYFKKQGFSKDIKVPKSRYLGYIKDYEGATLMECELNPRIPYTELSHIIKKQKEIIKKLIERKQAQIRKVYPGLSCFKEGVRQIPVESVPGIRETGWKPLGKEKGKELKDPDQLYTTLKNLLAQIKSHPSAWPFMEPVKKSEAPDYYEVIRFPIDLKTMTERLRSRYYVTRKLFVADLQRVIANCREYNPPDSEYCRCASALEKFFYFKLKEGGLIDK
UniProt Q92831: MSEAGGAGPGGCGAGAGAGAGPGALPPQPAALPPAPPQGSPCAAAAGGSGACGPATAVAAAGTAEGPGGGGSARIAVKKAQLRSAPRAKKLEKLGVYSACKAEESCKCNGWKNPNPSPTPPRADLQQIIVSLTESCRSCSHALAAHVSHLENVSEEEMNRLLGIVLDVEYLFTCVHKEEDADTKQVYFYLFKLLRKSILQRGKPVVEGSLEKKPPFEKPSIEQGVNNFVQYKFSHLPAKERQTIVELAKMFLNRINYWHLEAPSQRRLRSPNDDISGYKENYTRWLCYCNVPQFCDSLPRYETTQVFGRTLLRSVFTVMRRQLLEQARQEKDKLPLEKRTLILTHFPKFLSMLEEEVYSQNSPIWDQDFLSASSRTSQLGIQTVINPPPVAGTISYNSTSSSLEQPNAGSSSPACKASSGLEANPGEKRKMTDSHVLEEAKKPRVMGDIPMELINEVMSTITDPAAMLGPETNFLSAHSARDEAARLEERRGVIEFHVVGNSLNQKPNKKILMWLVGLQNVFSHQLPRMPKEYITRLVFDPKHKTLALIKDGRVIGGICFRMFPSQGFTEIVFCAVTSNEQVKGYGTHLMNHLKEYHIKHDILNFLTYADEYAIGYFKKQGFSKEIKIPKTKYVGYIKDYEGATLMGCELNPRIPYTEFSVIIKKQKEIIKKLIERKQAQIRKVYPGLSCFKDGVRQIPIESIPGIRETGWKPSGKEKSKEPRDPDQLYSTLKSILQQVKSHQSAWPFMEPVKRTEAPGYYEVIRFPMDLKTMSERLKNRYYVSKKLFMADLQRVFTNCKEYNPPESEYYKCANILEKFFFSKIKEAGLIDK

T1: CCAAT/enhancer-binding protein alpha (C/EBPα) WT, 42-kDa human, V5-His-tagged (human), P49715
T1 chain: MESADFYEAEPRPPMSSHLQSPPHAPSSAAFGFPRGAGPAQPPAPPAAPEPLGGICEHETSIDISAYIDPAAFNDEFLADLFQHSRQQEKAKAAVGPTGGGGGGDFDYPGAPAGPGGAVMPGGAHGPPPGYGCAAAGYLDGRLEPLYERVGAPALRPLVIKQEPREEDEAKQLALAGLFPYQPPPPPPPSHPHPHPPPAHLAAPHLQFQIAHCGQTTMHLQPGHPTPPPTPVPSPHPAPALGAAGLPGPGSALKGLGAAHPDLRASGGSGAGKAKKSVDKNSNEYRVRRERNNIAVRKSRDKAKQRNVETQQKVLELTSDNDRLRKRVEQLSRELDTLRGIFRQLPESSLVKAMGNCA


Tests used:
[1] = biological target: general control non-derepressible 5 (GCN5) (UniProt Q92830); assay: co-IP; 293T cells co-transfected; 1 mg whole cell lysate in 50 mM Tris-HCl, 150 mM NaCl, 1 mM EDTA, 1% Triton X-100; anti-FLAG M2 agarose beads overnight at 4 °C; washed thrice with TBS; immunoblot with FLAG and V5 antibodies
[2] = biological target: FLAG-tagged WT C/EBPα (human) (UniProt P49715); assay: co-IP; dimerization assay: 293T cells co-transfected with V5-tagged WT or mutant C/EBPα and FLAG-tagged WT C/EBPα; lysates 24 h after transfection; anti-FLAG M2 affinity gel, 2 h at 4 °C; washed thrice with TBS
[3] = biological target: PCAF (p300/CBP associated factor, a GCN5 homologue) (UniProt Q92831); assay: co-IP; co-immunoprecipitation (Supplementary Fig. 1d); cells, bait and antibodies not given
[4] = biological target: general control non-derepressible 5 (GCN5) (UniProt Q92830); assay: as above
[5] = biological target: T1, CCAAT/enhancer-binding protein alpha …; assay: co-IP; dimerization assay: 293T cells co-transfected with V5-tagged WT or mutant C/EBPα and FLAG-tagged WT C/EBPα; lysates 24 h after transfection; anti-FLAG M2 affinity gel, 2 h at 4 °C; washed thrice with TBS; settings: remark: other sources report otherwise

Molecule	binding [1]	also measured
C/EBPα K298, 302Q (K2Q), V5-His-tagged (from UniProt P49715 1-358)	–	binding [2]: binds
CCAAT/enhancer-binding protein alpha (C/EBPα) WT, 42-kDa human, V5-His-tagged (from UniProt P49715 1-358)	binds	binding [3]: binds; binding [4]: binds
CCAAT/enhancer-binding protein alpha (C/EBPα) WT, 42-kDa human, V5-His-tagged, P49715 1-358 (protein) MESADFYEAEPRPPMSSHLQSPPHAPSSAAFGFPRGAGPAQPPAPPAAPEPLGGICEHETSIDISAYIDPAAFNDEFLADLFQHSRQQEKAKAAVGPTGGGGGGDFDYPGAPAGPGGAVMPGGAHGPPPGYGCAAAGYLDGRLEPLYERVGAPALRPLVIKQEPREEDEAKQLALAGLFPYQPPPPPPPSHPHPHPPPAHLAAPHLQFQIAHCGQTTMHLQPGHPTPPPTPVPSPHPAPALGAAGLPGPGSALKGLGAAHPDLRASGGSGAGKAKKSVDKNSNEYRVRRERNNIAVRKSRDKAKQRNVETQQKVLELTSDNDRLRKRVEQLSRELDTLRGIFRQLPESSLVKAMGNCA	–	binding [5]: binds

More lines, main results first:

binding [1]	Molecule	also measured
binds	C/EBPα 1-207 (from UniProt P49715 1-207) (domain or fragment)	–
no binding	C/EBPα 204-358 (from UniProt P49715 204-358) (domain or fragment)	–
binds	C/EBPα p30/120-358 (from UniProt P49715-1 120-358) (domain or fragment)	–
